The source of these data is paper PMC7923551 (Proceedings of the National Academy of Sciences of the …, 2021).

Where “and” joins values, the source holds several entries; their conditions need not be identical. Equal values may be shown once.

Test [1] deals with T1, SARS-CoV-2 M^pro (Severe acute respiratory syndrome coronavirus 2, UniProt P0DTD1). The experiment in a line: FRET-based enzymatic assay. It is filed as biochemical. The note with it: 100 nM M^pro.
Test [2] concerns the target T1, SARS-CoV-2 M^pro. The experiment in a line: thermal shift binding assay. To be noted: 3 µM M^pro protein, 40 µM testing compound (Fig. 1C).
Test [3] addresses T1, SARS-CoV-2 M^pro. To be noted: 4 µM M^pro protein, 10 to 30 µM testing compound (Fig. 1D-H).
Test [4] concerns the target T1, SARS-CoV-2 M^pro. More on the design: method as in PMID 33330841. To be noted: with and without reducing reagent 1,4-dithiothreitol (DTT); cited from earlier work.
[5] abbreviates: IC50, in the absence of DTT, 10 µM FRET substrate (Fig. 1B).
Setting [6] is: IC50, in the presence of 4 mM DTT, 10 µM FRET substrate (Fig. 1A).

With `CCOc1nc2cccc(C(=O)OC(C)OC(=O)OC3CCCCC3)c2n1Cc1ccc(-c2ccccc2-c2nnn[nH]2)cc1` (stereo not drawn) [candesartan cilexetil], the IC50 (commonly the concentration that gives 50% inhibition) against SARS-CoV-2 M^pro [1] (setting [5]) was above 60 µM; at SARS-CoV-2 M^pro [1] (setting [6]) it was > 50 µM and 53.3 µM. Besides, on SARS-CoV-2 M^pro [2], the “binding to M^pro in thermal shift assay” value was “nor did they bind”. Besides, at SARS-CoV-2 M^pro [3], the “binding to M^pro in native MS assay” value was “did not show binding”.
As to `CCN(CCO)CCCC(C)Nc1ccnc2cc(Cl)ccc12` (stereo not drawn) [hydroxychloroquine], the “binding to M^pro in thermal shift assay” value on SARS-CoV-2 M^pro [2] is on record as “did not show binding”.
`COC(=O)N[C@H](C(=O)N[C@@H](Cc1ccccc1)[C@@H](O)CN(Cc1ccc(-c2ccccn2)cc1)NC(=O)[C@@H](NC(=O)OC)C(C)(C)C)C(C)(C)C` [atazanavir]: the IC50 on SARS-CoV-2 M^pro [1] (setting [5]) and on SARS-CoV-2 M^pro [1] (setting [6]) was above 60 µM each time. Moreover, the “binding to M^pro in thermal shift assay” value at SARS-CoV-2 M^pro [2] is “nor did they bind”.
Turning to `CCN(CC)C(=S)SSC(=S)N(CC)CC` [disulfiram], the “inhibition of SARS-CoV-2 M^pro and dependence on DTT” value at SARS-CoV-2 M^pro [4] was “inhibition was only observed in the absence of reducing reagent”.
Consider `CCOc1nc2cccc(C(=O)O)c2n1Cc1ccc(-c2ccccc2-c2nnn[nH]2)cc1` [candesartan], for which the IC50 against SARS-CoV-2 M^pro [1] (setting [5]) and at SARS-CoV-2 M^pro [1] (setting [6]) was above 60 µM in each case. Also, the “binding to M^pro in thermal shift assay” value at SARS-CoV-2 M^pro [2] was “nor did they bind”.
On to `CN(C)[C@@H]1C(O)=C(C(N)=O)C(=O)[C@@]2(O)C(O)=C3C(=O)c4c(O)cccc4[C@@](C)(O)[C@H]3[C@H](O)[C@@H]12` [oxytetracycline], for which the IC50 at SARS-CoV-2 M^pro [1] (setting [5]) and at SARS-CoV-2 M^pro [1] (setting [6]) was above 60 µM throughout. The “binding to M^pro in thermal shift assay” value at SARS-CoV-2 M^pro [2] was “nor did they bind”.
